#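 Growth conditions: 96-well plates. Treatment: test compound, 48 hours, 5 concentrations. Analysis: linear interpolation between bracketing concentrations; unreached endpoints set to highest concentration. GI50 marks 50% less growth. TGI marks complete inhibition of growth.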
# Tested on: NCI-H322M lung
# Experiment: DTP human tumour cell line panel, 48 h
compound,measurement,value
CCN(CC)c1ccc2c(c1)Oc1nc(N)c(C#N)c(N)c1C2Sc1ccc(C)cc1 (configuration not stated),GI50,1670 nM
same,TGI,3040 nM
